# Hit rate of the full screen: of about 300,000 compounds, about 22,000 (7.3%) were called active. This list was built around the results that the source calls inconclusive (neither active nor inactive); the mix of calls is not that of the screen. No stated cut-off is given here; in the data, active means activity score below about -60%; inconclusive means mostly about -28% to -61%; inactive means positive scores.
# Test: Activators via SNCA 5'UTR binding, MLPCN (AID 1814)
# Conditions: alpha-synuclein 5'UTR reporter, activators screen; stronger effect = lower value; tested at 7.5 µM
row,SMILES,activity score
1,CC1CCc2sc(C(=O)NCc3ccccn3)cc2C1 (stereo not given),active: -112%
2,COC(=O)c1ccc(COC(=O)c2cnc(Cl)c(Cl)c2)cc1,inconclusive: -52.5%
3,COc1ccc(C(=O)N/N=C/C(Br)=C/c2ccccc2)cc1,inconclusive: -57.9%
4,O=C(O)C1CCN(C(=O)OCc2ccccc2)CC1,active: -142%
5,CCCNC(=O)c1cc(-c2ccc(Br)cc2)on1,active: -85.1%
6,COc1cccc(C=Nc2ccccc2C(=O)Nc2nccs2)c1OC,inconclusive: -47.2%
7,CC1C/C(=N/NC(=O)c2ccc(CSc3nc4ccccc4[nH]3)cc2)CC(C)(C)C1 (stereo not given),inconclusive: -42.4%
8,O=C(N/N=C/c1ccccn1)c1ccc(Cl)cc1,inconclusive: -55.4%
9,COc1cc(-c2noc(C)c2C#Cc2ccccn2)cc(OC)c1OC,inactive: 85.8%
10,COc1ccnc(Oc2ccc(C)cc2)c1C#N,active: -80.5%
11,CCOc1ccc(-c2nc3scc(-c4cccs4)c3c(=O)[nH]2)cc1,inconclusive: -43.7%
12,CCOc1ccc(OCc2cccc(C(=O)O)c2)cc1,inactive: 83.6%
13,Cc1ccc(NC(=O)CSc2nc3c(c(=O)[nH]2)CCC3)cc1C,inconclusive: -32.4%
14,CC(=O)NN1C(=O)/C(=C2/Sc3ccc(Cl)cc3N2C)SC1=S,inconclusive: -53.8%
15,CN1CCN(CCOc2ccc(-c3ccccc3)cc2)CC1,active: -110%
16,O=C(O)/C=C/C(=O)NCCNc1ncc(C(F)(F)F)cc1Cl,inconclusive: -43.9%
17,Cc1sc(N/N=C/c2cccs2)nc1-c1ccccc1,active: -211%
18,Cc1cc(C)[n+]2[nH]c(N)c(N=Nc3ccccc3)c2n1,inconclusive: -49.5%
19,Cc1oc(/N=C/c2ccc3c(c2)OCO3)c(C#N)c1C,active: -73.8%
20,CC(C)c1ccc(-c2csc3nc[nH]c(=O)c23)cc1,inconclusive: -49.9%
21,COc1ccc2nc3c(nc2c1)CCCC3,inconclusive: -45.6%
22,COc1ccc(/C=N/NS(=O)(=O)c2ccc(F)cc2)cc1COc1cc(F)ccc1[N+](=O)[O-],inconclusive: -50.3%
23,CN(C)CCN1C(=O)C(=O)/C(=C(/O)c2ccc(OCc3ccccc3)cc2)C1c1ccncc1 (stereo not given),inconclusive: -50%
24,CCOc1ccc(/C(O)=C2/C(=O)C(=O)N(c3nc(C)c(C)s3)C2c2ccco2)cc1 (stereo not given),active: -84.9%

row,SMILES,activity score
1,Cc1ccsc1/C=N/NC(=O)c1cc(-c2ccncc2)nc2ccccc12,inactive: 67.4%
2,O=C(Nc1nc(-c2ccccn2)cs1)C1CCCC1,active: -96.8%
3,Cc1ccccc1Cn1cc(NC(=O)c2noc(C(C)C)c2[N+](=O)[O-])cn1,inactive: 106%
4,CCC(=O)NC(c1ccc(OC)c(OC)c1)c1cc(Cl)c2cccnc2c1O (stereo not given),inactive: 111%
5,O=C(c1ccco1)N1CCN(C(=O)N2c3ccccc3Sc3ccccc32)CC1,inactive: 80.9%
6,Cc1cccc(C(=O)O/N=C(\N)c2cccc([N+](=O)[O-])c2)c1,active: -157%
7,O=C(Nc1nnc(SCc2ccc(F)cc2)s1)c1ccccn1,inactive: 63.2%
8,CCCN(CCC)S(=O)(=O)c1ccc(C(=O)Nc2nnc(-c3cccc(OC)c3)o2)cc1,inactive: 69.9%
9,CCOC(=O)c1cc2ccc(OC(=O)c3ccco3)cc2oc1=O,inconclusive: -22.8%
10,O=C1C(C=NCc2ccccn2)=C(O)c2ccccc21,active: -106%
11,CCOC(=O)N1CCC(N(C(=O)Nc2ccc(CC)cc2)C(C)CC)CC1 (stereo not given),inconclusive: -42.1%
12,CCOC(=O)CNc1c(-c2ccccc2)nc2ccc(Cl)cn12,inconclusive: -58.3%
13,O=C(N/N=C/c1ccccc1O)C1CC(=O)N(c2ccc(Cl)cc2)C1 (stereo not given),inactive: 83.3%
14,CN=c1scc(-c2ccccc2F)n1/N=C/c1ccc[nH]1,inactive: 83.1%
15,Cc1cc(NC2CCCC2)n2ncc(-c3ccccc3)c2n1,inactive: 59.9%
16,CCOc1ccc(CCNC(=O)c2ccc(CS(=O)Cc3ccccc3Cl)o2)cc1 (stereo not given),inconclusive: -58.7%
17,CN=C1S/C(=C/c2cn(CC(=O)OC)c3ccccc23)C(=O)N1C,inconclusive: -51.3%
18,COc1cccc(NC2SC(=O)N(c3ccccc3)C2=O)c1 (stereo not given),active: -97%
19,Nc1ccc(N=Nc2ccccc2)c2cccnc12,inconclusive: -57.1%
20,O=c1c(Cl)c(Nc2cccc(Cl)c2)cnn1-c1nc2ccccc2s1,active: -78.1%
21,COc1ccc(Cl)c2c1[nH]c1nc(SCc3ccccn3)nnc12,active: -106%
22,CC(C)(C)c1ccc(Oc2ccc(N)cn2)cc1,inactive: 87%
23,CCOC(=O)N1CCN(S(=O)(=O)c2ccc(F)c(C(=O)Nc3ccc(C)c(Cl)c3)c2)CC1,inconclusive: -41.9%
24,Cc1cc(C)nc(NC(=O)c2cccs2)c1,inconclusive: -59.6%

row,SMILES,activity score
1,CCN(CC)S(=O)(=O)c1ccc(N2CCOCC2)c(NC(=O)c2cc(-c3ccccn3)nc3ccccc23)c1,inactive: 88.4%
2,O=[N+]([O-])c1c(Nc2ccccc2O)ccc2nonc12,inconclusive: -52.6%
3,COc1cc(C2C(C#N)=C(N)OC3=C2C(=O)CCC3)cc(OC)c1OC(=O)N1CCOCC1 (stereo not given),inconclusive: -28.6%
4,Cn1c(/C=C/c2ccc([N+](=O)[O-])o2)nc2ccccc2c1=O,inactive: 97.9%
5,CCCCN(CC)C(=O)c1cc2cc3ccc(OC)cc3nc2o1,active: -111%
6,COc1ccccc1NS(=O)(=O)c1cc(C(=O)NCc2cccnc2)ccc1C,inconclusive: -85.4%
7,CCC(=O)NC(c1ccc(C)cc1)c1cc([N+](=O)[O-])c2cccnc2c1O (stereo not given),inactive: 64%
8,CC(C)Sc1ncnc2c1oc1ccccc12,inconclusive: -58.2%
9,COc1cc(-c2nnc(SCC3(c4ccc(Br)cc4)OCCO3)o2)cc(OC)c1OC,inconclusive: -53%
10,COCCNC(=O)CSc1ncnc2sc(-c3ccccc3)cc12,inconclusive: -49.6%
11,COc1ccc2[nH]c(=O)c(-c3nnn(-c4ccccc4)n3)cc2c1,inconclusive: -52.3%
12,Cc1ccc(C(=O)c2cc([N+](=O)[O-])ccc2N2CCCCC2)cc1,inactive: 81.1%
13,CCOc1ccc(Nc2nc3cc(S(=O)(=O)N(CC)CC)ccc3o2)cc1,inactive: 78.3%
14,Oc1c(Cl)cc(Cl)c(Cl)c1Cc1c(O)c(Cl)cc(Cl)c1Cl,inactive: 77.3%
15,Cc1cc(NC(=O)c2cccc(Cl)c2)n[nH]1,active: -70.8%
16,CCn1c2ccccc2c2cc(NC(=O)COc3ccccc3)ccc21,inconclusive: -45.7%
17,S=C(NCc1ccccc1)NCC1COc2ccccc2O1 (stereo not given),inconclusive: -60.7%
18,CCCOC(=O)c1ccc(NC(=O)C(CC)CC)cc1,inconclusive: -57%
19,Cc1cc(NC(=O)c2ccc(NC(=O)C3CCCO3)cc2)ccc1Br (stereo not given),active: -121%
20,Cc1ccsc1C(=O)OCC(=O)c1cc2ccccc2o1,inconclusive: -39.2%
21,Cn1c(SCc2ccc(F)cc2)nnc1-c1ccccn1,active: -168%
22,Cc1cc2ncc(-c3ccc(Cl)cc3)cn2n1,active: -83.8%
23,CN1CCN(NC(=O)c2cccc(F)c2)CC1,inconclusive: -30%
24,COc1cccc(NC(=O)c2c(C)nn(-c3ccccc3)c2Cl)c1,active: -137%

row,SMILES,activity score
1,O=C(CCCN1C(=O)/C(=C/c2cccc(Br)c2)SC1=S)NCCCN1CCOCC1,inconclusive: -38%
2,CCc1ccc(NCCC(=O)c2ccc(Cl)cc2)cc1,inconclusive: -53.7%
3,CC(=O)Cc1nsc(Nc2ccc(C)cc2)n1,active: -92.6%
4,CC(C)(C)c1ccc(Cn2c(=N)n(CC(O)c3ccco3)c3ccccc32)cc1 (stereo not given),inactive: 101%
5,O=C(N/N=C/c1cccc([N+](=O)[O-])c1)c1ccc(Br)cc1,inconclusive: -58.5%
6,Brc1ccc(-c2ccc(/C=N/Nc3nc4ccccc4[nH]3)o2)cc1,active: -227%
7,O=c1cnnc(N/N=C/c2ccccn2)[nH]1,inactive: 74.8%
8,O=C(Nc1cc2ccccc2oc1=O)c1ccccc1,inactive: 73.7%
9,Brc1ccccc1OCCNCc1ccccc1,inconclusive: -55.8%
10,O=C1CC(c2cc(Br)ccc2F)c2cc3c(cc2N1)CCC3 (stereo not given),inactive: 65.1%
11,COc1ccc2c(c1)Cc1sc(NC(=O)c3cccs3)nc1-2,active: -242%
12,COc1ccc(NC(=S)NC(=O)c2cc3ccccc3o2)c(OC)c1,inconclusive: -53.6%
13,O=C1OC(c2ccc(Cl)cc2)/C(=C(/O)c2ccccc2)C1=O (stereo not given),active: -66.5%
14,O=C(c1c(F)cccc1F)N1CCCC(c2nc(-c3cccs3)no2)C1 (stereo not given),inconclusive: -50.6%
15,CN(C)S(=O)(=O)c1ccc(C(=O)Nc2nnc(-c3ccc4c(c3)CCCC4)o2)cc1,inactive: 69%
16,CN(C)c1ccc(NC(=O)CSc2nc(N)c(C(=O)Nc3ccc(N(C)C)cc3)s2)cc1,active: -151%
17,CC(C)(O)C#Cc1ccc(C(=O)NC2CCCCC2)s1,active: -97.9%
18,Cc1nn(-c2ccc(F)cc2)c(Cl)c1/C=N/NC(=O)c1cccs1,inconclusive: -56.7%
19,CCN1CCN(CCCNC(=O)c2ccc(/C=C3/Oc4ccccc4N(Cc4cccc(C)c4)C3=O)cc2)CC1,inactive: 101%
20,CN1C=C/C(=C\c2cc[n+](C)c3ccccc23)c2ccccc21,inactive: 74%
21,CCC(=O)N1N=C(c2ccc(C)o2)CC1c1ccc(N(C)C)cc1 (stereo not given),inconclusive: -50.9%
22,O=C(NCC(=O)N1CCCC1)c1ccccc1F,inconclusive: -50.1%
23,CCn1nnnc1SCC(=O)N1CCc2ccccc21,inconclusive: -56.8%
